The results in this text go back to PubChem BioAssay AID1508624 (National Center for Advancing Translational Sciences (NCATS), 2021).

Molecules are shown by their SMILES. Screen size: about 48,000 compounds; about 120 (0.25%) were called active. Inconclusive results (about 4%) are left out. Calls come from the whole dose curve; as a rule, active = well fitted activation curve with a large enough effect; inconclusive = small, poorly fitted or top-dose-only effect, or another doubt; inactive = no such curve, though single readings can be large or run the other way. This is one part of the list.

The assay is described as follows: Primary qHTS for Identification of Small Molecule Activators of Huntingtin-Antisense Promoter Activity. Note: nearly all actives have a fitted effect of over 55% in size. To be noted: HEK293 HTT-AS promoter firefly luciferase reporter (activity 0% = vehicle and -100% = no light), 24 h; series mostly up to 57.5 µM; activity change, positive = activation: at the top concentration. In short, it runs like this: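 Firefly luciferase signal from promoter-reporter HEK293 cells was scaled between vehicle (0%) and zero RLU (-100%). Compounds were tested at final concentrations of up to 57.5 uM over 24 h at 37 degrees C. PTC124 at 50 uM final served as control inhibitor.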
For `O=C(C1CCCN(S(=O)(=O)c2ccc(Br)s2)C1)N1CCN(c2ccccc2)CC1` (stereo not drawn), the “activity change, positive = activation” value was inactive: -32.5%.

As to `CC(=O)N1CCCc2cc(S(=O)(=O)N3CCCC(C(=O)Nc4cc(Cl)ccc4C)C3)ccc21` (stereo not drawn), the “activity change, positive = activation” value is inactive: -24.8%.

Regarding `Cc1ccc(C2CCN(C(=O)c3cnn(-c4ccc(C)cc4)c3C3CCN(C(=O)OC(C)(C)C)CC3)C2)cc1` (stereo not drawn), the “activity change, positive = activation” value is inactive: 26.5%.

On to `CC1=C(C(=O)Nc2cccnc2)C(c2ccccc2)n2nc(-c3ccc(O)cc3)nc2N1` (stereo not drawn), for which the “activity change, positive = activation” value was inactive: -7.11%.

In the case of `C=Cc1ccc(Cn2c(C(=O)O)c(CNCc3ccccc3)c3ccc(C)cc32)cc1`, the “activity change, positive = activation” value is inactive: -57.6%.

Turning to `CCCCN(C)C(=O)C1CCC(CNS(=O)(=O)c2ccc(Cl)cc2)CC1` (stereo not drawn), the “activity change, positive = activation” value was inactive: -28.9%.

In the case of `CCC(Oc1ccccc1)C(=O)Nc1cc(-c2ccccc2OC)nn1-c1ccccc1` (stereo not drawn), the “activity change, positive = activation” value was inactive: 0.876%.

Take `Cc1ccc(CS(=O)(=O)c2ncc(Cl)c(C(=O)Nc3nc4ccc(F)cc4s3)n2)cc1`: the “activity change, positive = activation” value is inactive: -86.1%.

Consider `Cc1ccc(-c2nc3c(c(SCC(=O)Nc4ccccc4Cl)n2)Cc2c(CO)cnc(C)c2O3)cc1`, for which the “activity change, positive = activation” value was inactive: -4.54%.

For the compound `CCOC(=O)c1c(S(=O)(=O)NCC(=O)NCc2cccc(C)c2)c(C)n(C)c1C`, the “activity change, positive = activation” value is inactive: -12.6%.

For the compound `COc1ccc(CCNC(=O)CSc2nc(-c3ccc(F)cc3)cc(C(F)(F)F)n2)cc1OC`, the “activity change, positive = activation” value is inactive: -19.4%.

`Cc1cccc(C(=O)Nc2nnc(S(=O)(=O)N(C)Cc3ccco3)s2)c1`: the “activity change, positive = activation” value was inactive: -7.09%.

Consider `CCCN1C[C@H](CSC)C[C@@H]2c3cccc4[nH]cc(c34)C[C@H]21`, for which the “activity change, positive = activation” value was inactive: -14%.

For `Cc1ccc(NC(=O)CN2C(=O)C3(SCC(=O)N3c3cccc(Cl)c3)c3ccccc32)cc1C` (stereo not drawn), the “activity change, positive = activation” value was inactive: -33.8%.

For the compound `Cc1nn(-c2ccccc2)c2sc(C(=O)Nc3ccccc3Br)cc12`, the “activity change, positive = activation” value is inactive: -18.1%.

As to `Cc1ccc(NS(=O)(=O)c2ccc3c(c2)CCCN3C(=O)C2CCC2)cc1Cl`, the “activity change, positive = activation” value was inactive: -28.3%.

Take `Nc1c(C(=O)Nc2ccc(C(=O)O)cc2)sc2nc3c(cc12)CCCC3`: the “activity change, positive = activation” value was inactive: -73.7%.

For the compound `CCOC(=O)C(=O)CCCCCCl`, the “activity change, positive = activation” value was inactive: -1.9%.

Regarding `COCCNc1nc2c(S(=O)(=O)c3ccc(C)c(C)c3)nnn2c2ccc(Cl)cc12`, the “activity change, positive = activation” value is inactive: 12%.

For `COc1cc(OC)cc(C(=O)Nc2ccc(S(=O)(=O)Nc3ncccn3)cc2)c1`, the “activity change, positive = activation” value is inactive: -17%.

On to `Cc1nc2nncn2c(NCc2ccc(F)cc2)c1C`, for which the “activity change, positive = activation” value was inactive: -85.4%.

Consider `Cc1ccc(NC(=O)CCS(=O)(=O)c2cc3c4c(c2)CCN4C(=O)CC3)c(C)c1`, for which the “activity change, positive = activation” value was inactive: -7.04%.

On to `O=C(NCc1ccc2c(c1)CCN2C(=O)c1ccc(Cl)cc1)c1cccc(F)c1`, for which the “activity change, positive = activation” value was inactive: 1.95%.

Regarding `O=C(Nc1nnc(S(=O)(=O)Nc2ccccc2)s1)c1ccccc1Cl`, the “activity change, positive = activation” value was inactive: -9.98%.

Take `O=C1OC2(c3ccccc31)c1cc(I)c(O)c(I)c1Oc1c2cc(I)c(O)c1I`: the “activity change, positive = activation” value is inactive: -24.9%.

As for `CC(=O)Nc1ccccc1`, the “activity change, positive = activation” value was inactive: -2.58%.

Consider `COc1cccc(C(c2c(O)cc(C)n(Cc3ccco3)c2=O)N2CCN(c3ccccc3)CC2)c1` (stereo not drawn), for which the “activity change, positive = activation” value is inactive: -0.441%.

For the compound `COc1cc(Cl)c(C)cc1NC(=O)Cn1ncc2c([nH]c3ccccc32)c1=O`, the “activity change, positive = activation” value was inactive: -20.7%.

Take `COC(=O)c1cc2sccc2n1Cc1nc(-c2ccc(Cl)cc2)oc1C`: the “activity change, positive = activation” value was inactive: 19.6%.

`Cc1cc(C)n(C(C)CC(=O)NCc2ccc(N(C)C)cc2)n1` (stereo not drawn): the “activity change, positive = activation” value is inactive: -13.6%.

Regarding `CCc1ccccc1NC(=O)c1ccc2c(c1)N(Cc1cc(C)ccc1C)C(=O)c1ccccc1S2(=O)=O`, the “activity change, positive = activation” value was inactive: -26.3%.

`C[N+]1(C)[C@@H]2C[C@@H](OC(=O)C(O)(c3cccs3)c3cccs3)C[C@H]1[C@@H]1O[C@@H]12`: the “activity change, positive = activation” value was inactive: -6.2%.

Turning to `CCOCCCn1c(SCC(=O)Nc2ccc(C)cc2)nc2ccccc2c1=O`, the “activity change, positive = activation” value is inactive: -26.6%.

For `COc1ccc(CNC(=O)C(C)n2ccc3cc(S(=O)(=O)N4CCCC4)ccc32)cc1OC` (stereo not drawn), the “activity change, positive = activation” value is inactive: -0.662%.

`Cc1cc(C)c(NC(=O)C2CCN(c3nnc(C)c4c(C)n(-c5ccccc5)nc34)CC2)c(C)c1`: the “activity change, positive = activation” value is inactive: -17.6%.

Turning to `COc1ccccc1NC(=O)C1=C(C)Nc2nc(SCc3ccccc3C)nn2C1CC(C)C` (stereo not drawn), the “activity change, positive = activation” value is inactive: -6.65%.

As to `O=C(COc1ccccc1)Nc1nnc(S(=O)(=O)N2CCCC2)s1`, the “activity change, positive = activation” value was inactive: -9.56%.

Turning to `O=C(OCC1CCCO1)c1ccc2c(c1)N(Cc1ccccc1Cl)C(=O)c1ccccc1S2(=O)=O` (stereo not drawn), the “activity change, positive = activation” value is inactive: -23.9%.

As to `COc1ccccc1NC(=O)C(Cc1ccccc1)NS(=O)(=O)c1ccc2c(c1)c(=O)n(C)c(=O)n2C` (stereo not drawn), the “activity change, positive = activation” value is inactive: -12.8%.

Consider `CCOc1ccc(-n2c(=O)c3c4c(sc3n(CC(=O)Nc3cccc(C(F)(F)F)c3)c2=O)CCCCC4)cc1`, for which the “activity change, positive = activation” value is inactive: -4.31%.

For the compound `O=C(NCc1ccc(F)cc1)c1c(O)nc2ccccn2c1=O`, the “activity change, positive = activation” value is inactive: -2.46%.

Regarding `Cc1cc(Nc2cccc(C(F)(F)F)c2)nc2ccc(NC(=O)c3ccc(=O)[nH]c3)cc12`, the “activity change, positive = activation” value is inactive: -27.4%.

`CCCCOc1cccc(NC(=O)CSc2nnc(C)s2)c1`: the “activity change, positive = activation” value is inactive: 1.41%.

As for `CN(Cc1ccccc1)c1ncnc2onc(-c3ccc(F)cc3)c12`, the “activity change, positive = activation” value was inactive: -36.4%.

For `COc1ccc(OC)c(NC(=O)CSc2nc3ccccc3nc2N2CCCCC2)c1`, the “activity change, positive = activation” value is inactive: -18.9%.

Take `COc1ccc(NC(=O)COc2ccc(S(=O)(=O)NC3CCCCC3)cc2)cc1OC`: the “activity change, positive = activation” value was inactive: -29.7%.

On to `O=C(Nc1ccccc1)c1ccc(Br)c(S(=O)(=O)N2CCCCC2)c1`, for which the “activity change, positive = activation” value is inactive: -8.62%.

`CCCC(=O)OCc1cnc(C)c2oc(=O)c(C(=O)Nc3ccccc3)cc12`: the “activity change, positive = activation” value is inactive: -11.8%.
